# Measured values reported in the supplement of paper PMC12217912.
# This is one part of the list. The full chains were built here from the parent and the listed change. Values near 0.05 are background.
# B1: TEV protease; numbered along this chain (parent)
# chain: MGESLFKGPRDYNPISSSICHLTNESDGHTTSLYGIGFGPFIITNKHLFRRNNGTLVVQSLHGVFKVKDTTTLQQHLVDGRDMIIIRMPKDFPPFPQKLKFREPQREERICLVTTNFQTKSMSSMVSDTSCTFPSGDGIFWKHWIQTKDGQCGSPLVSTRDGFIVGIHSASNFTNTNNYFTSVPKNFMELLTNQEAQQWVSGWRLNADSVLWGGHKVFMVKPEEPFQPVKEATQL
# Variants of: B1
# Assay: raw area under fraction-flipped curve 0-4 h after induction (AUC4h, not background-subtracted), DNA-recorder readout of cleavage of the substrate (dimensionless); higher = more cleavage of the substrate by the protease variant
# Conditions: temperature: 34 °C; time window: 0-4 h after rhamnose induction
# Protocol: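 In vivo DNA recorder in E. coli TOP10(DE3) ΔrhaA at 34 °C. Each TEVp single-site mutant (parent TEVp 0) is paired with a single-site variant of the 7-mer TEVs (canonical ENLYFQ|S). The substrate sits between flexible linkers in a Bxb1-sfGFP-TEVs-SsrA fusion, so cleavage stabilises Bxb1 and speeds flipping of a recombination array, read by NGS. The value is the raw area under the fraction-flipped curve over 0-4 h after rhamnose induction (AUC4h), with ≥20 reads per time point. It is not background-subtracted; inactive controls average about 0.047.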
# 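Note: Bxb1 expression induced with 0.2% (w/v) L-rhamnose at OD600 near 0.5, cultures sampled hourly, flipped fraction per protease–substrate barcode pair counted by paired-end Illumina sequencing.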
Variant,area with substrate CNLYFQS,area with substrate GNLYFQS,area with substrate KNLYFQS,area with substrate LNLYFQS,area with substrate PNLYFQS,area with substrate TNLYFQS,area with substrate WNLYFQS,area with substrate YNLYFQS,area with substrate DNLYFQS,area with substrate FNLYFQS,area with substrate HNLYFQS,area with substrate MNLYFQS,area with substrate NNLYFQS,area with substrate SNLYFQS,area with substrate INLYFQS,area with substrate RNLYFQS,area with substrate QNLYFQS,area with substrate VNLYFQS
D128Y,0.0784,0.0853,0.0799,0.0911,0.0733,0.055,0.0611,0.0715,–,–,–,–,–,–,–,–,–,–
D128N,0.0836,–,0.08,0.0694,0.0704,–,0.0654,0.0605,0.086,0.0457,0.0783,0.0638,0.104,0.0859,–,–,–,–
D128W,0.145,–,–,–,0.115,–,–,0.121,–,–,0.111,–,–,0.134,0.0934,–,–,–
D128L,0.0835,0.0889,0.0542,0.0586,0.0876,0.0824,0.0717,0.0463,0.105,0.0745,0.0745,–,–,–,0.0913,0.0627,–,–
D128I,0.0674,–,0.0719,–,–,0.0513,0.049,0.0618,–,–,0.112,0.0733,–,0.0743,0.0799,–,–,–
S32R,0.0534,0.0664,0.0714,0.0615,0.0684,0.0543,0.0393,0.0538,–,0.0548,0.0655,0.0722,0.0611,0.0649,0.0733,0.0643,0.0725,–
S32I,0.0712,0.0664,0.0504,0.0644,0.0652,0.0714,0.0554,–,–,–,–,0.0635,–,–,–,–,–,–
S32Q,0.0756,0.0824,–,0.0707,0.0639,0.056,0.0582,0.0704,0.0878,0.046,0.0566,0.0156,0.0634,0.0721,–,–,0.0723,–
S32M,0.0552,–,–,0.0894,0.0811,0.0648,–,–,0.0608,–,0.0608,–,–,–,0.0964,–,–,–
S32A,0.0614,0.0688,0.0659,0.0508,0.0522,0.0639,0.0703,–,0.0631,0.0764,0.0595,0.0839,0.0731,–,0.0675,0.0546,0.0617,0.0712
G136N,0.0831,–,0.0556,0.0601,0.0708,0.0713,0.0485,0.0775,0.0923,–,0.0931,–,0.0771,0.0545,–,–,–,–
G136R,0.068,0.0827,–,0.0685,0.0622,–,0.0689,0.051,0.0658,–,0.0655,0.0569,0.0722,–,0.0691,0.0581,–,0.0666
G136H,0.0722,0.0536,0.0726,–,0.0501,0.0606,0.0601,0.0618,–,–,0.0638,0.039,0.0742,0.0749,0.0511,–,0.062,–
G136L,0.0712,0.0773,0.0744,–,0.0714,0.0489,0.0549,–,–,0.0918,0.0638,0.0916,0.0529,–,–,–,0.0752,–
G136Q,0.0623,0.035,0.0642,0.0775,0.0733,0.0656,0.0559,0.0729,–,–,0.0652,0.0723,0.0481,–,0.059,0.076,–,0.0605
